Reference: PubChem BioAssay AID904 (National Center for Advancing Translational Sciences (NCATS), 2007)
Out of some 55,000 compounds screened, about 530 (0.96%) were called active. The shares of active, inactive and inconclusive entries below differ from those in the screen. Calls come from the whole dose curve; as a rule, active = well fitted cell-killing curve with a large enough effect; inconclusive = small, poorly fitted or top-dose-only effect; inactive = no such curve, though single readings can be large or run the other way. Potencies beside an inconclusive call are fits to weak or partial responses and may not hold up.
Potency is the fitted concentration of half-maximal effect; tags give direction and shape of the fitted curve.

Test: qHTS Screen for Compounds that Selectively Target Cancer Cells with p53 Mutations: Cytotoxicity of p53 Null Cells at the Nonpermissive Temperature; note: nearly all actives have a fitted effect of over 50% in size
Conditions: H1299 p53-null (neo) cells, 39C, ATPlite viability, 24 h; series mostly up to 46.1 µM
Summary of the method: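 H1299 lung cancer cells, p53-null (H1299-neo) or expressing p53 A138V (H1299-p53A138V), were plated overnight at 37C, then exposed to compounds at up to 46 uM for 24 hr at 39C. Viability was read by ATP-based luminescence.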
For `COc1ccc(-c2nn(C)c3sc(C(=O)Nc4cc(OC)c(OC)c(OC)c4)cc23)cc1OC`, the Potency was inconclusive: 4.47 µM [cytotoxic, partial curve].
In the case of `CCCCC(CC)CNC(=O)c1ccc(Cn2c(=O)[nH]c3cc(OC)c(OC)cc3c2=O)cc1` (centres undefined), the Potency is reported as active: 12.6 µM.
In the case of `COc1ccccc1OCCCn1c(C2CC(=O)N(c3ccc(F)cc3)C2)nc2ccccc21` (centres undefined), the Potency is reported as inconclusive: 4.47 µM [cytotoxic, full curve, poor fit].
For `COc1cc(C2c3c(oc4ccccc4c3=O)C(=O)N2Cc2ccccc2Cl)ccc1O` (centres undefined), the Potency was inconclusive: 31.6 µM [cytotoxic, single point].
In the case of `Cc1ccc(N2CCN(C(=O)C3CCC(CNS(=O)(=O)c4ccc(Br)s4)CC3)CC2C)cc1` (centres undefined), the Potency is reported as “inactive”.
In the case of `Cc1ccccc1Cn1c(Oc2ccccc2F)nc2c1c(=O)n(C)c(=O)n2C`, the Potency is reported as “inactive”.
With `Cc1ccc2nc(SCc3nc(-c4ccccc4C)no3)[nH]c2c1` the Potency was inconclusive: 20 µM [cytotoxic, single point].
In the case of `CCN1CCN(CCCNC(=O)c2cc3c(s2)-c2c(C)cccc2OC3)CC1`, the Potency is reported as inconclusive: 17.8 µM [cytotoxic, single point].
With `OCc1cnc(SCc2cccc(F)c2)n1Cc1ccc(F)cc1` the Potency was “inactive”.
With `O=C(Nc1cccc(Cl)c1)c1ccc2nc(Cc3ccccc3)oc2c1` the Potency was inconclusive: 5.62 µM [cytotoxic, partial curve, poor fit].
In the case of `Cc1ccc2c(c1)N(C(=O)N1CCC(C(=O)NCCC3=CCCCC3)CC1)CC(C)O2` (centres undefined), the Potency is reported as inconclusive: 10 µM [cytotoxic, partial curve].
For `COC(=O)c1ccccc1NC(=O)c1ccc2c(c1)CCN2S(=O)(=O)c1ccc(C)cc1`, the Potency was inconclusive: 2.51 µM [cytotoxic, single point].
With `CCOc1ccc(C(=O)Nc2ccc(-c3nc4cc(C(C)C)ccc4o3)cc2)cc1Cl` the Potency was “inactive”.
In the case of `CCOC(=O)c1cc(S(=O)(=O)NCc2ccc(F)cc2)[nH]n1`, the Potency is reported as “inactive”.
For `COc1cccc(-c2nn(C)c3sc(C(=O)NCc4ccc(C)cc4)cc23)c1`, the Potency was inconclusive: 0.0251 µM [cytotoxic, full curve, poor fit].
In the case of `COc1ccc(C(=O)Nc2cc3cc(Cl)ccc3oc2=O)cc1OC`, the Potency is reported as “inactive”.
With `CCN1CCN(c2cc(C)c3cc(NC(=O)c4cc(Br)ccc4Cl)ccc3n2)CC1` the Potency was inconclusive: 28.2 µM [cytotoxic, single point].
In the case of `CCc1nc2ccccc2n1CCCCOc1ccc(Cl)cc1`, the Potency is reported as inconclusive: 11.2 µM [cytotoxic, partial curve, poor fit].
For `Cn1cc(S(=O)(=O)N2CCCCCC2)cc1C(=O)Nc1ccccc1F`, the Potency was inconclusive: 1 µM [cytotoxic, partial curve].
In the case of `O=C(Nc1ccc(F)cc1F)c1cc2ccc3cccnc3c2[nH]1`, the Potency is reported as inconclusive: 5.62 µM [cytotoxic, full curve].
For `Cc1cc(C)c(S(=O)(=O)Nc2ccc(-c3ccc(N4CCCCC4)nn3)cc2)c(C)c1`, the Potency was inconclusive: 12.6 µM [cytotoxic, partial curve].
With `Cc1ccc(N(C)S(=O)(=O)c2ccc(-c3cnc(C4CC4)o3)cc2)cc1` the Potency was inconclusive: 8.91 µM [cytotoxic, partial curve, poor fit].
With `CCn1c(CN2CCCCC2)nc2cc(NC(=O)COc3cc(C)ccc3C(C)C)ccc21` the Potency was inconclusive: 25.1 µM [cytotoxic, single point].
With `O=C1c2[nH]nc(-c3ccccc3O)c2C(c2cccc(Br)c2)N1Cc1ccncc1` (centres undefined) the Potency was inconclusive: 5.62 µM [cytotoxic, partial curve, poor fit].
For `CCN(CC)CCNC(=O)c1sc2nc(C)cc(C)c2c1-n1cccc1`, the Potency was inconclusive: 10 µM [cytotoxic, partial curve, poor fit].
In the case of `Cc1c(C(=O)N(C)c2ccccc2)sc2nc(-c3ccc(F)cc3)cn12`, the Potency is reported as inconclusive: 28.2 µM [cytotoxic, single point].
For `CCC(=O)Nc1cc(-c2nc3cc(C)cc(C)c3o2)ccc1C`, the Potency was inconclusive: 2.51 µM [cytotoxic, partial curve].
In the case of `Cc1cccc2c1-c1sc(C(=O)Nc3ccccc3C(N)=O)cc1CO2`, the Potency is reported as inconclusive: 12.6 µM [cytotoxic, single point].
In the case of `COCCCNC(=O)c1sc2nc(C)c(C(=O)Nc3ccc(Cl)cc3)c(-c3ccc(Br)cc3)c2c1N`, the Potency is reported as “inactive”.
For `CCOC(=O)c1ccc2c(c1)sc1nc(-c3ccc(OCC)cc3)cn12`, the Potency was inconclusive: 10 µM [cytotoxic, partial curve].
In the case of `O=C(Nc1cccc(Cl)c1)C(Cc1ccccc1)n1cccc1` (centres undefined), the Potency is reported as inconclusive: 14.1 µM [cytotoxic, partial curve, poor fit].
In the case of `O=C(CNC(=O)c1ccccc1Cl)OCc1cc(=O)n2nc(C3CC3)sc2n1`, the Potency is reported as “inactive”.
In the case of `CC(C)c1ccc(Nc2cc(C(=O)NCCCN(C)Cc3ccccc3)c3ccccc3n2)cc1`, the Potency is reported as “inactive”.
With `CCn1ccc2cc(S(=O)(=O)N3CCCN(C(=O)Nc4ccc(C)cc4Cl)CC3)ccc21` the Potency was inconclusive: 0.199 µM [cytotoxic, full curve, poor fit].
With `COc1ccccc1CNC(=O)CCCn1c(=O)c2ccccc2n(CC(=O)Nc2ccc(C)cc2Cl)c1=O` the Potency was inconclusive: 31.6 µM [cytotoxic, single point].
With `Cc1cc(C)cc(NS(=O)(=O)c2ccc(-c3cc(C)no3)s2)c1` the Potency was inconclusive: 8.91 µM [cytotoxic, partial curve].
For `CCOc1ccc(NC(=O)CC2Nc3cccc4cccc(c34)NC2=O)cc1` (centres undefined), the Potency was “inactive”.
With `Cc1ccc(NC(=O)c2nc(S(=O)(=O)Cc3cccc(C)c3)ncc2Cl)cc1` the Potency was active: 22.4 µM.
In the case of `O=C(COc1ccc2oc3c(c2c1)CCCC3)Nc1ccc(Cl)cc1`, the Potency is reported as “inactive”.
For `COc1ccc(/C=C/C(=O)N2CCC(c3nc4ccccc4o3)CC2)cc1`, the Potency was inconclusive: 35.5 µM [cytotoxic, single point].
In the case of `COc1cccc(N2CC(NC(=O)C3CCCCC3)CC2=O)c1` (centres undefined), the Potency is reported as inconclusive: 1.12 µM [cytotoxic, full curve, poor fit].
In the case of `CCOC(=O)c1[nH]c2ccccc2c1NC(=O)c1ccccc1OC`, the Potency is reported as active: 15.8 µM.
With `COc1ccc(CNc2nc(-c3ccco3)nn2C(=O)CC(C)C)cc1` the Potency was inconclusive: 6.31 µM [cytotoxic, partial curve].
With `CCc1ccc(CNC(=O)C(CC)n2nc(C)c3c(C)n(-c4ccccc4)nc3c2=O)cc1` (centres undefined) the Potency was inconclusive: 12.6 µM [cytotoxic, single point].
For `CN(c1ccccc1)C(CNS(=O)(=O)c1ccccc1)c1ccccc1` (centres undefined), the Potency was inconclusive: 0.0355 µM [cytotoxic, full curve, poor fit].
With `Cc1ccc(N2C(=O)CS(=O)(=O)C23C(=O)N(Cc2ccccc2F)c2ccccc23)cc1Cl` (centres undefined) the Potency was inconclusive: 0.794 µM [cytotoxic, full curve, poor fit].
In the case of `COc1ccc(C2c3c(-c4ccccc4O)n[nH]c3C(=O)N2CCc2ccccc2)cc1` (centres undefined), the Potency is reported as inconclusive: 35.5 µM [cytotoxic, single point].
For `Cc1ccc(C)c(NC(=O)CSc2nnc(C)n3c2cc2occc23)c1`, the Potency was inconclusive: 0.0501 µM [cytotoxic, full curve].
For `Cc1ccc(Cl)cc1NC(=O)Cn1c(=O)n(CCC(=O)N2CCc3ccccc3C2)c(=O)c2ccccc21`, the Potency was “inactive”.
With `COc1cccc(CNC(=O)Cn2c(=O)oc3cc(S(=O)(=O)N4CCC(C)CC4)ccc32)c1` the Potency was “inactive”.
With `COc1ccc(Cn2c(C(=O)O)c(CNCCc3ccccc3Cl)c3ccc(C)cc32)cc1` the Potency was inconclusive: 22.4 µM [cytotoxic, single point].
For `Cc1cc(C)cc(OCC(=O)Nc2cccc(-c3nc4ccccc4[nH]3)c2)c1`, the Potency was inconclusive: 31.6 µM [cytotoxic, single point].
In the case of `CC(=O)c1ccc(NC(=O)C2CCCN(S(=O)(=O)c3cn(C)cn3)C2)cc1` (centres undefined), the Potency is reported as inconclusive: 0.794 µM [cytotoxic, full curve, poor fit].
For `COc1cccc(NS(=O)(=O)c2ccc3[nH]cc(C(=O)NC4CCCCC4)c(=O)c3c2)c1`, the Potency was inconclusive: 14.1 µM [cytotoxic, partial curve].
With `O=S(=O)(NCc1ccccc1)c1ccc2[nH]c3c(c2c1)CCCCC3` the Potency was inconclusive: 15.8 µM [cytotoxic, partial curve].
With `COc1ccc(-c2csc(NC(=O)COC(=O)Cc3ccc(Cl)cc3Cl)n2)cc1` the Potency was “inactive”.
With `COc1ccccc1CCNC(=O)c1cc2ccccn2n1` the Potency was inconclusive: 11.2 µM [cytotoxic, partial curve].
For `O=C(Nc1ccccc1C(=O)O)c1cccc(S(=O)(=O)N2CCCC2)c1`, the Potency was inconclusive: 14.1 µM [cytotoxic, partial curve].
With `COc1ccc(Cl)cc1NC(=S)NCCSc1ccc(C)cc1` the Potency was inconclusive: 17.8 µM [cytotoxic, single point].
For `Cc1ccccc1NC(=O)CSc1nc2ccc(NC(=O)COc3ccccc3F)cc2s1`, the Potency was inconclusive: 10 µM [cytotoxic, partial curve].
With `Cc1cccc(OCC(=O)Nc2ccc3nc(Nc4cccc(Cl)c4)cc(C)c3c2)c1` the Potency was inconclusive: 35.5 µM [cytotoxic, single point].
In the case of `Cc1ccc(-c2nc3cccnc3s2)cc1NC(=O)Cc1ccccc1`, the Potency is reported as inconclusive: 20 µM [cytotoxic, partial curve].
In the case of `CC(C)COc1ccccc1C1CC(=O)Nc2cc3c(cc21)OCO3` (centres undefined), the Potency is reported as inconclusive: 17.8 µM [cytotoxic, partial curve].
For `Clc1ccccc1Cc1cn2cc(-c3ccccc3)nc2s1`, the Potency was inconclusive: 2.24 µM [cytotoxic, full curve, poor fit].
